Test results: publication PMC12136788
Some of the results follow.

T1: UNK ZnF1-6 (called full-length) (human, UniProt Q9C0B0 30-357)
T1 sequence: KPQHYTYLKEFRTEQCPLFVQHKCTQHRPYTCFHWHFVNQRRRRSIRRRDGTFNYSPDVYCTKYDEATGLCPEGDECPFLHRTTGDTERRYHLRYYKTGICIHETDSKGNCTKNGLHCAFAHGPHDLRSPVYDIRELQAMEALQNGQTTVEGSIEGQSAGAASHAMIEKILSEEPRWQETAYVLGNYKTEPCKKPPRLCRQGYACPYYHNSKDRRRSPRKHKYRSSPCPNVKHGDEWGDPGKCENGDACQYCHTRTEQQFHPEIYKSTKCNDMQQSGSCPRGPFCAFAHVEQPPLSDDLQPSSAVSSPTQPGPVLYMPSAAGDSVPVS

B1: chr5:133955728:133955829:-|3pUTR|ENSG00000113583|msi1|total|mutant (ssRNA)
RNA: GGGAGUUCUACAGUCCGACGAUCUCAAUAUGUAAAUAUGUGAUUUGAACCAUGGUUGACUUACAAGUGUCACUACAGCUUUUCCGAAAACACCGCCCUAAUAUAUGUUAAGCAGGACCCGGGUGAGCCAGUGGGCUUGCGCUUCAACAGAGGAUUGAGCAUCA
B2: chr15:52547342:52547511:-|3pUTR|ENSG00000128989|msi1|FALSE|unique (ssRNA)
RNA: GGGAGUUCUACAGUCCGACGAUCAACAUAUUUAAUAUUAUGCCCUUGGAUCUGUUACUGCAUCACUAGCACUUGUGAUGCAAUAGAACACUUCGCCUGUACUGAAAGGGCCAAGAGUAAAUGCCUUGUUUUGUUUUUUUGUUUCAACAGAGGAUUGAGCAUCA
B3: chr16:30351896:30351997:-|3pUTR|ENSG00000169217|unk|total|mutant (ssRNA)
RNA: GGGAGUUCUACAGUCCGACGAUCCUGGCACCCUCCACCUCCACGCCCCACCAGCAUUGCCUUACGCCUCCCUUGCCCCACGUCCGAUGGUUUCUUCCGGUUUUGCACUCUGGCUGCCCCUUGGAGUCUCCUGGGGAGCUGUAACAACAGAGGAUUGAGCAUCA
B4: chr15:63774837:63774950:-|CDS|ENSG00000103657|unk|FALSE|unique (ssRNA)
RNA: GGGAGUUCUACAGUCCGACGAUCGUAACAACAUUUCUUAAAGGAGUCACUAUUCCUAAUUCUGGGGCAGACACUUUAGGUCGUAGAUUAGCUUCUGAGUUGCUGCUUGGUUUGGCAGCUCAACGAGGCUCAUUGCGAUAUCUUCAACAGAGGAUUGAGCAUCA
B5: ENSG00000107863:be:win_5151|CDS|ENSG00000107863|bound_else_gene|NA|bound_elsewhere_windowed (ssRNA)
RNA: GGGAGUUCUACAGUCCGACGAUCUCUAGGAGAUGCCAAGAAUGAGAAAGAAGCACCUUCGUUAACUAAAGUGUUUGAUGUUAUGAAAAAAGGAAAGUCAACUGGGAGUUUACUGACACCCACCAGAGGCGAAUCCGAAAAACACAACAGAGGAUUGAGCAUCA
B6: chr2:210612109:210612263:+|CDS|ENSG00000021826|unk|FALSE|unique (ssRNA)
RNA: GGGAGUUCUACAGUCCGACGAUCUAUUGGUCGUACCUUUGAGGAGAGUUUCCAGAAAGCUUUACGGAUGUGCCACCCAUCUAUAGAAGGUUUCACUCCCCGUCUCCCAAUGAACAAAGAAUGGCCAUCUAAUUUAGAUCUUAGCAACAGAGGAUUGAGCAUCA
B7: chrX:11121696:11121802:+|CDS|ENSG00000004961|unk|FALSE|unique (ssRNA)
RNA: GGGAGUUCUACAGUCCGACGAUCUGAUGGUGGUGAAGUCAACAAGGACUACCAGUUCACCAUCCUGGACGUCCGUCCUGCCUUAGAUUCACUUUCGGCAGUAUGGGACAGAAUGAAAGUCGCUUGGUGGCGUUGGACCUCGUACAACAGAGGAUUGAGCAUCA
B8: chr2:152649661:152649762:+|3pUTR|ENSG00000157827|msi1|FALSE|unique (ssRNA)
RNA: GGGAGUUCUACAGUCCGACGAUCCUACAAAUAGACAACGUUGGCAUGUUCUUUUCUGUUUGUCUAUUAAUGGGCCUGCUUCUUAGCAAUAUUAGAAUGUUUUAUAAAAGCAAUUCAUGUUACUUUUCUGGUCUUUUCAUGGCACAACAGAGGAUUGAGCAUCA
B9: chr20:25296659:25296760:+|3pUTR|ENSG00000100994|msi1|FALSE|unique (ssRNA)
RNA: GGGAGUUCUACAGUCCGACGAUCUGGGGGUCAGGGUGGUUUUGAGAGAGCAGGGUAAGGAAGGAAUGUGCUAGAAGUGCUCCUAGUUUCUUGUAAAGGAAGCCAGAGUUGACAGUACAAAGGGUCGUGGCCAGCCCUGCAGCUCAACAGAGGAUUGAGCAUCA
B10: chr1:162523450:162523604:+|3pUTR|ENSG00000152332|msi1|total|mutant (ssRNA)
RNA: GGGAGUUCUACAGUCCGACGAUCAGACUAAGUUGUGCCAGAUGUAAAUCAACCCCUCUUUCCGUUUACUUCCGACUUUGUAUCCGCUCAUCUUUUUUGCCGUAAAUCUACCGUUUUAAGGUUUCUCAAGAUGUGGCUCUACCUCAACAGAGGAUUGAGCAUCA
B11: chr21:36753219:36753320:-|3pUTR|ENSG00000159267|msi1|total|mutant (ssRNA)
RNA: GGGAGUUCUACAGUCCGACGAUCGUUUCAGAUUUACUCUGAAAUGUGGAGCAUUCCUGCAAGACUGUGCAGCUCACGGAAUACCGAAGACAUGGCAUUUUACUCAGAAGUCAUAAGUUUUUGCCCCCCUCAUUUACCUCGUAUCAACAGAGGAUUGAGCAUCA
B12: chr1:46929176:46930310:-|three_prime_utr|ENSG00000187048|control|control|control (ssRNA)
RNA: GGGAGUUCUACAGUCCGACGAUCAAGGCUACCCUGACGCACCAUAAUCUAAGCCCGGGGCAUAAAACCCCUCGUGGCUUGGAUAGAAUCCAGGGCUCGUGGCUCUGGAAUGUGUCUGAACUUGCUGCCUCCUCGCUCCUUGCUCAACAGAGGAUUGAGCAUCA
B13: chr1:53088011:53088246:-|CDS|ENSG00000162383|control|control|control (ssRNA)
RNA: GGGAGUUCUACAGUCCGACGAUCCAAGCCAGUGAGCCUCCAGGAGAUCGUGGCAGCCCAGCAGAAUGGCUGUGUGAAGAGUGUAGCCGAGGCCUCCGAGCUCACCCUGGGCCCCACCUGCCCCCACCACGUCCCCGUUCAAGUCAACAGAGGAUUGAGCAUCA
B14: chr5:140245379:140245480:-|3pUTR|ENSG00000113068|msi1|FALSE|unique (ssRNA)
RNA: GGGAGUUCUACAGUCCGACGAUCUCUUCUCUUUUCCCUUCCUGUACCUUUGACUAACGCUCAGCUUCCGGGCCUGCAUGCAGUAGACAGAAGAGGAAGAAAGAACAGAUGUUCACAGCUGAAUCUCAGUGAACAGAAUAGCAGCAACAGAGGAUUGAGCAUCA
B15: chr11:61865769:61866452:+|3pUTR|ENSG00000134824|msi1|FALSE|unique (ssRNA)
RNA: GGGAGUUCUACAGUCCGACGAUCUGCAGCCUGGUCACUAGGCAUCACCCCCGCUUUGGUUCUUCAGAUGCUCUUGGGGUUCAUAGGGGCAGGUCCUAGUCGGGCAGGGCCCCUGACCCUCCCGGCCUGGCUUCACUCUCCCUGCAACAGAGGAUUGAGCAUCA
B16: chr3:15690066:15690176:-|CDS|ENSG00000206560|unk|total|mutant (ssRNA)
RNA: GGGAGUUCUACAGUCCGACGAUCAGUGUUGGUACAGUCUUUGUCCGAUCUUGAUGUCAGAAACCGCCGUGGAAGAACACCCCCCGAUCUUGCAGCUUUUAAGGGCCAUGUUGAAUGUGUGGAUGUACUCAUUAAUCAGGGAGCCAACAGAGGAUUGAGCAUCA
B17: chr1:56708525:56708626:+|3pUTR|ENSG00000162409|unk|total|mutant (ssRNA)
RNA: GGGAGUUCUACAGUCCGACGAUCACCUUUCUCAAAUUCUUUUUGCCUCUAUUUAUUUUUGCAUUUCACCAACAGUGAUAAAACCGUUAAAUGAAACAAAGCAAAGUAUCAACAGUCCCUUAAAUGAGAAUCCUUAUCUUUGAUCAACAGAGGAUUGAGCAUCA
B18: chr5:136977529:136977630:-|3pUTR|ENSG00000152377|msi1|total|mutant (ssRNA)
RNA: GGGAGUUCUACAGUCCGACGAUCACAAGCCAUCUCUUUCAUUUCUGCUUGAAGCCCCUUGGCUGCAGCAAUCCUGUCUGCCACCGGUUUCUUCCUUCCUUACCUACUCAAGGGCUUUUUCUAAGGCAUGCACACAUAUCUCCUCAACAGAGGAUUGAGCAUCA
B19: chr14:106421710:106422018:-|CDS|ENSG00000211959|control|control|control (ssRNA)
RNA: GGGAGUUCUACAGUCCGACGAUCCUAUUAUAGUGGGAGCACCUACUACAACCCGUCCCUCAAGAGUCGAGUCACCAUAUCCGUAGACACGUCCAAGAACCAGUUCUCCCUGAAGCUGAGCUCUGUGACCGCCGCAGACACGGCCAACAGAGGAUUGAGCAUCA
B20: chr10:84150713:84150851:+|CDS|ENSG00000165678|unk|FALSE|unique (ssRNA)
RNA: GGGAGUUCUACAGUCCGACGAUCUCUUCCACCUACCACCGUGGCUGGUGCCACUCUUUACUCAGUGGCAAUGUACGGUGGAUUAGUUCUUUUCAGCAUGUUCCUUCUGUAUGAUACCCAGAAAGUAAUCAAGCGUGCAGAAGUCAACAGAGGAUUGAGCAUCA
B21: chr15:30360565:30362292:-|three_prime_utr|ENSG00000166664|control|control|control (ssRNA)
RNA: GGGAGUUCUACAGUCCGACGAUCACAACUCCAGUGUUCCCUUCUGGCUGUCAGUCGUGUUGCUUACGGUUUCUUUGUUACUUUAGGUAGUAGAAUCUCAGCACUUUGUUUCAUAUUCUCAGAUGGGCUGAUAGAUAUCCUUGGCAACAGAGGAUUGAGCAUCA
B22: chr1:109310645:109310811:-|3pUTR|ENSG00000134243|msi1|total|mutant (ssRNA)
RNA: GGGAGUUCUACAGUCCGACGAUCAGGGUAACGGGGCUGGCCUGGCAUCCGUCAUUAUUCCGUUUCCAGGCCAACCAUCCAGACCGAGAUUCCCUCUUUCCUUUGAGCAGUGCUCUCAAGAGCUCCGUGCCUGUCCACAAUGACCAACAGAGGAUUGAGCAUCA

The binders below were run against T1, UNK ZnF1-6 (called full-length) (assay: nsRBNS (natural sequence RNA bind-n-seq); RBNS binding buffer (assumed for nsRBNS): 25 mM Tris pH 7.5, 150 mM KCl, 3 mM MgCl2, 0.01% Triton X-100, 500 ug/ml BSA, 20 U/ml SUPERase-In, 4 C; UNK is unkempt and MSI1 is Musashi-1; names of the RNAs are library labels; protein concentration not given here; high values mean tight binding).
B1 showed a binding signal of 0.509 enrichment R. Binder B2 has a binding signal of 0.525 enrichment R. In the case of B3, the binding signal is reported as 0.803 enrichment R. B4 gave a binding signal of 0.542 enrichment R. With B5 the binding signal was 0.365 enrichment R. Work on B6 yielded a binding signal of 0.606 enrichment R. Binder B7 has a binding signal of 0.634 enrichment R. For B8, the binding signal was 1.74 enrichment R. Work on B9 yielded a binding signal of 1.2 enrichment R. For B10, the binding signal was 0.326 enrichment R. B11 gave a binding signal of 0.465 enrichment R. B12 gave a binding signal of 0.448 enrichment R. For B13, the binding signal was 1.11 enrichment R. In the case of B14, the binding signal is reported as 0.49 enrichment R. For B15, the binding signal was 0.87 enrichment R. In the case of B16, the binding signal is reported as 0.555 enrichment R. Binder B17 has a binding signal of 0.479 enrichment R. B18 was tested, and the binding signal was 0.593 enrichment R. Work on B19 yielded a binding signal of 0.621 enrichment R. B20 gave a binding signal of 0.843 enrichment R. B21 gave a binding signal of 0.472 enrichment R. Binder B22 has a binding signal of 0.743 enrichment R.
